Among all 210,000 compounds or so, about 5,900 (2.8%) were called active. This list was built around the results that the source calls inconclusive (neither active nor inactive); the mix of calls is not that of the screen. Calls follow the shape of the dose curve; as a rule, active = well fitted activation curve with a large enough effect; inconclusive = small, poorly fitted or top-dose-only effect; inactive = no such curve, though single readings can be large or run the other way. Potencies beside an inconclusive call are fits to weak or partial responses and may not hold up.
Test: qHTS Assay for Enhancers of SMN2 Splice Variant Expression; also: nearly all actives have a fitted effect of over 55% in size; as to activity change, positive = activation: % of control where 0% means no effect
Settings: HEK293 SMN2-luciferase splicing reporter, luminescence, 30-36 h; activity change, positive = activation: at 46.1 µM (top of the series)
Summary of the method: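 HEK293 cells carry an SMN2 minigene-luciferase reporter in which exon 7 inclusion puts luciferase in frame. Cells were seeded at 2000 cells/well, attached for 10-12 hours, then exposed to compounds for 30-36 hours at 37C before ONE-Glo luminescence.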
Potency is read from the fitted curve at half-maximal effect; tags tell the direction and shape of the fitted curve.

Q: With `CCc1nc2onc(C)c2c(=O)n1CC(=O)O` as the molecule, how does the Potency read?
A: inconclusive: 31.6 µM [activator, single point]

Q: Which Potency does the source give for `CCC(=O)N/C(N)=N/c1nc(C)c2cc(OC)ccc2n1` here?
A: inconclusive: 35.5 µM [activator, single point]

Q: With `Cc1nc(N)sc1-c1csc(Nc2ccccn2)n1` as the molecule, how does the Potency read?
A: active: 8.91 µM

Q: Which Potency does the source give for `CCn1c(SCC(=O)c2ccc(O)c(O)c2)nnc1-c1ccc(C)cc1` here?
A: inconclusive: 35.5 µM [activator, single point]

Q: With `Cc1nc2cc3c(cc2c(C)c1C(=O)OC(C)C)OCO3` as the molecule, how does the Potency read?
A: inconclusive: 5.62 µM [activator, single point]

Q: For `O=C(NCCCn1ccnc1)c1cc(-c2ccc3c(c2)OCO3)on1`, which “activity change, positive = activation” value is on record?
A: inactive: -4.62%

Q: Which Potency does the source give for `Cc1ccccc1OCc1n(CC(=O)OC2CC(C)CCC2C(C)C)c2ccccc2[n+]1C` (stereo not given) here?
A: inactive

Q: Which “activity change, positive = activation” value does the source give for `Cc1cccc(C)c1` here?
A: inactive: 4.44%

Q: Which “activity change, positive = activation” value does the source give for `O=C(CSc1nnc(SCc2cccc3ccccc23)s1)Nc1ccc(C(=O)O)cc1` here?
A: inactive: 18.1%

Q: With `COC(=O)c1ccc(S(=O)(=O)N2C3CCC2CC(NC(=O)NC2CCCCC2)C3)cc1` (stereo not given) as the molecule, how does the “activity change, positive = activation” value read?
A: inactive: -20.2%

Q: Which “activity change, positive = activation” value does the source give for `CCCN(CCC)C(=O)SCC` here?
A: inactive: -6.45%

Q: With `Cc1cc(C)cc(C(=O)Nc2c(C(=O)Nc3ccccc3F)oc3ccccc23)c1` as the molecule, how does the Potency read?
A: inconclusive: 1.26 µM [activator, full curve]

Q: For `O=c1cc(-c2ccccc2)nc2nc(-c3ccco3)[nH]n12`, which Potency is on record?
A: inconclusive: 11.2 µM [activator, partial curve]

Q: For `CC(=O)c1cc2c(cc1N/C(=N/S(=O)(=O)c1ccccc1)c1ccc(Cl)cc1)OCO2`, which Potency is on record?
A: inconclusive: 0.631 µM [activator, single point]

Q: With `Cc1ccc(S(=O)(=O)c2c(C)nn(C(C)(C)C)c2OC(=O)CC(C)C)cc1` as the molecule, how does the Potency read?
A: inconclusive: 35.5 µM [activator, single point]

Q: Which Potency does the source give for `Cc1nc2ccccc2c(=O)n1NC(=O)COc1ccccc1` here?
A: inconclusive: 0.0355 µM [activator, full curve, poor fit]

Q: For `CC(C)(C)NC(=O)C(c1ccccc1)N(C(=O)c1ccco1)C1CC1` (stereo not given), which Potency is on record?
A: inconclusive: 0.0224 µM [activator, full curve, poor fit]

Q: Which “activity change, positive = activation” value does the source give for `COc1cc(/C=N/Nc2nc(C)nc3c2cnn3-c2ccccc2)ccc1O` here?
A: inactive: -6.08%

Q: For `Cc1cc(C(=O)CN2CCCCC2)c(C)n1-c1ccc(F)cc1`, which Potency is on record?
A: inconclusive: 25.1 µM [activator, single point]

Q: For `Cc1ccc(/C=C/C(=O)Nc2cccnc2)o1`, which Potency is on record?
A: inconclusive: 10 µM [activator, single point]

Q: For `O=c1cnc2cnc(Oc3cccc(Cl)c3)nc2n1C1CC1`, which “activity change, positive = activation” value is on record?
A: inactive: -32.2%

Q: With `O=C(Nc1ccc2nc(-c3cccs3)[nH]c2c1)c1ccco1` as the molecule, how does the Potency read?
A: inconclusive: 14.1 µM [activator, single point]

Q: Which Potency does the source give for `CCn1c(/C(C#N)=C(\O)CCc2ccccc2)nc2ccccc21` here?
A: inconclusive: 0.316 µM [activator, full curve]

Q: For `CCC(=O)Nc1nnc(SCc2ccccc2F)s1`, which activity change, positive = activation is on record?
A: inconclusive: 30.5% [activator]

Q: Which “activity change, positive = activation” value does the source give for `COc1ccc(NC(C)=O)cc1S(=O)(=O)N1CCN(C/C=C/c2ccccc2)CC1` here?
A: inactive: 0.843%

Q: With `CCSc1ncc(/C=N/Nc2ccc([N+](=O)[O-])cc2)n1C` as the molecule, how does the Potency read?
A: inconclusive: 12.6 µM [activator, partial curve]

Q: With `Cc1ccc(C)c(S(=O)(=O)Nc2ccc3scnc3c2)c1` as the molecule, how does the Potency read?
A: inconclusive: 4.47 µM [activator, partial curve]

Q: With `CCOC(=O)C1=C(C)OC(N)=C(C#N)C1c1cc2cc(C)ccc2nc1N1CCCCC1` (stereo not given) as the molecule, how does the Potency read?
A: inconclusive: 12.6 µM [activator, single point]

Q: Which “activity change, positive = activation” value does the source give for `CC(C)CC(=O)NC(=S)Nc1cc(C(=O)O)ccc1Cl` here?
A: inactive: 22.3%

Q: Which Potency does the source give for `CCSc1nnc(-c2ccc(OC)cc2)o1` here?
A: active: 11.2 µM

Q: Which Potency does the source give for `c1ccc2sc(NN=C3CCCC3)nc2c1` here?
A: active: 3.16 µM

Q: Which Potency does the source give for `CCOc1ccc(S(=O)(=O)N/N=C2/CC(c3ccccc3)Oc3ccccc32)cc1` (stereo not given) here?
A: inconclusive: 3.98 µM [activator, partial curve]

Q: Which Potency does the source give for `COc1ccc(N2CCN(C(=O)c3cccc4nc(C)oc34)CC2)cc1` here?
A: inconclusive: 5.62 µM [activator, single point]

Q: With `Cc1noc(C)c1COc1ccc(C(=O)NCc2ccccn2)cc1` as the molecule, how does the Potency read?
A: inconclusive: 35.5 µM [activator, partial curve]

Q: Which “activity change, positive = activation” value does the source give for `CC(C)(C)C1CCC(OCC(O)CN2CCN(c3ccccn3)CC2)CC1` (stereo not given) here?
A: inactive: -14.7%

Q: With `Cc1ccnc2nc(C(=O)Nc3ccc4c(c3)OCO4)nn12` as the molecule, how does the Potency read?
A: active: 11.2 µM

Q: With `CCOC(=O)c1[nH]c(COC(=O)CCCOc2ccccc2)c(C(=O)OCC)c1C` as the molecule, how does the “activity change, positive = activation” value read?
A: inactive: 1.97%

Q: Which Potency does the source give for `Cc1sc2ncnc(N/N=C/c3cccc(O)c3)c2c1C` here?
A: inconclusive: 0.794 µM [activator, full curve, poor fit]

Q: Which Potency does the source give for `Cc1ccccc1OCc1nc2ccccc2c(=O)n1/N=C/c1c[nH]c2ccccc12` here?
A: inconclusive: 0.316 µM [activator, partial curve]

Q: For `Clc1ccccc1Cn1cccc1C1=NC(Cc2ccccc2)CO1` (stereo not given), which “activity change, positive = activation” value is on record?
A: inactive: -25.6%

Q: Which Potency does the source give for `Cc1c(NC(=S)NC(=O)c2ccco2)c(=O)n(-c2ccccc2)n1C` here?
A: inconclusive: 1.41 µM [activator, partial curve, poor fit]

Q: With `COc1ccc(NC(=O)c2ccccc2O)c(OC)c1` as the molecule, how does the Potency read?
A: inconclusive: 14.1 µM [activator, single point]

Q: Which “activity change, positive = activation” value does the source give for `CCn1c(=O)c(=O)n(CC)c2cc(N3CCCCC3)c(NC(=O)c3ccc(OC)c(OC)c3)cc21` here?
A: inactive: 2.83%

Q: With `O=C(Nc1n[nH]c(C2CCCCC2)n1)C1CCCCC1` as the molecule, how does the Potency read?
A: active: 0.112 µM

Q: Which “activity change, positive = activation” value does the source give for `CC(=O)N1c2ccc3ccccc3c2C2C=CCC2C1c1ccc(Br)cc1` (stereo not given) here?
A: inactive: -6.6%

Q: For `N=C1C=CC(=C(c2ccc(N)cc2)c2ccc(N)cc2)C=C1`, which Potency is on record?
A: inactive

Q: With `CCOC(=O)c1nc(NCCc2ccccc2)sc1C` as the molecule, how does the Potency read?
A: inconclusive: 12.6 µM [activator, partial curve, poor fit]

Q: Which Potency does the source give for `COc1cc(C(=O)Nc2ccc3c(c2)CCN3C(C)=O)cc(OC)c1OC` here?
A: inconclusive: 7.94 µM [activator, partial curve, poor fit]

Q: With `COc1ccccc1NC(=S)N/N=C/c1cccc(C)c1` as the molecule, how does the Potency read?
A: inconclusive: 35.5 µM [activator, single point]

Q: For `Cc1cc(N2CCOCC2)ccc1/C=C1\NC(=O)N(CC(=O)Nc2ccccc2C)C1=O`, which Potency is on record?
A: inconclusive: 3.16 µM [activator, single point]

Q: With `O=C(OCc1ccccc1F)c1ccc2c(c1)-c1ccccc1C2=O` as the molecule, how does the Potency read?
A: inconclusive: 20 µM [activator, single point]

Q: Which “activity change, positive = activation” value does the source give for `Cc1csc(NC(=O)Cc2c[nH]c3ccccc23)n1` here?
A: inactive: -3.31%

Q: For `Cc1ccc2[nH]c(=O)c(CN(CCO)Cc3nnnn3CCc3ccccc3)cc2c1`, which Potency is on record?
A: inconclusive: 7.08 µM [activator, partial curve, poor fit]

Q: Which Potency does the source give for `CC(C)CSc1nnc2c(n1)[nH]c1ccccc12` here?
A: active: 2.24 µM

Q: With `Nc1nc(-c2ccc(Br)cc2)cs1` as the molecule, how does the Potency read?
A: inconclusive: 14.1 µM [activator, partial curve, poor fit]

Q: For `O=C(CSc1nc2ccccc2c(=O)n1NC(=O)c1ccccc1)c1ccccc1`, which Potency is on record?
A: inconclusive: 15.8 µM [activator, single point]

Q: With `Oc1ccc(C=Nc2ccccc2-c2nc3ccccc3[nH]2)c(O)c1` as the molecule, how does the Potency read?
A: active: 14.1 µM

Q: For `Cc1ccc(-c2nnc(N)s2)cc1`, which Potency is on record?
A: inconclusive: 11.2 µM [activator, partial curve]

Q: Which Potency does the source give for `Cn1nc([N+](=O)[O-])nc1S(C)(=O)=O` here?
A: inconclusive: 17.8 µM [activator, partial curve, poor fit]

Q: Which Potency does the source give for `N=c1sccn1CC(=O)NC(c1ccccc1)c1ccccc1` here?
A: inconclusive: 5.01 µM [activator, full curve, poor fit]

Q: With `COc1ccc(N2C(=O)CC(NC34CC5CC(CC(C5)C3)C4)C2=O)c(OC)c1` (stereo not given) as the molecule, how does the Potency read?
A: inconclusive: 0.0891 µM [activator, full curve, poor fit]

Q: For `CCc1cc2c3c(c1)/C(=C1/SC(N)=NC1=O)C(=O)N3C(C)(C)C=C2C`, which Potency is on record?
A: inconclusive: 0.891 µM [activator, single point]

Q: Which Potency does the source give for `Cc1cc(C)cc(Nc2ncc3c(n2)CCCC3=O)c1` here?
A: active: 2.51 µM

Q: Which Potency does the source give for `CCCS(=O)(=O)NCc1cn2c(C)csc2n1` here?
A: active: 11.2 µM

Q: For `COc1ccc(Cn2c(CCC(=O)Nc3ccc(Br)c(C)c3)nc3cccnc32)cc1`, which “activity change, positive = activation” value is on record?
A: inactive: -16.8%

Q: For `O=C(CCc1nnc(CCCc2ccccc2)o1)NC(C1CC1)C1CC1`, which Potency is on record?
A: active: 14.1 µM

Q: With `CN1CCN(c2cc(=O)n(Cc3ccc(F)cc3)c(=O)[nH]2)CC1` as the molecule, how does the Potency read?
A: inconclusive: 0.0891 µM [activator, full curve, poor fit]

Q: Which Potency does the source give for `COc1ccc(C(=O)Nn2c(SCC(=O)NCc3ccco3)nc3ccccc3c2=O)cc1` here?
A: inconclusive: 2 µM [activator, partial curve]

Q: Which “activity change, positive = activation” value does the source give for `CCOc1ccc(NC(=O)Cn2cc(C(=O)c3ccc(F)cc3)c(=O)c3cc4c(cc32)OCO4)cc1` here?
A: inactive: -13.4%

Q: With `C/C(=N/NC(=O)c1cc2ccccc2cc1O)C1C(=O)c2ccccc2C1=O` as the molecule, how does the Potency read?
A: inconclusive: 20 µM [activator, single point]

Q: With `O=[N+]([O-])c1ccc(COn2nnc3ccccc32)cc1` as the molecule, how does the “activity change, positive = activation” value read?
A: inactive: -7.1%

Q: With `Cc1ccc(-c2noc(CN3CCOCC3)n2)cc1` as the molecule, how does the Potency read?
A: inconclusive: 35.5 µM [activator, single point]

Q: Which Potency does the source give for `O=C(c1ccccc1)c1c(O)cc(-c2ccccc2)oc1=O` here?
A: inconclusive: 25.1 µM [activator, single point]

Q: With `O=c1c(Cl)c(NCCCO)cnn1-c1nc2ccccc2[nH]1` as the molecule, how does the Potency read?
A: inconclusive: 10 µM [activator, partial curve, poor fit]

Q: Which Potency does the source give for `COc1ccc(C2=NN(C(=O)CN3CCOCC3)C(c3nc4ccccc4[nH]3)C2)cc1` (stereo not given) here?
A: inconclusive: 12.6 µM [activator, partial curve]
